The chains are these.
B1: tRNA (parent)
chain: CUCUCGGUAGCCAAGUUGGUUUAAGGCGCAAGACUUUAAUUUAUCACUACGAAAUCUUGAGAUCGGGCGUUCGACUCGCCCCCGGGAGAUUUUUUCCUCGAGCAA

Variants at the floor of the assay are shown more often than the library holds them.

The variants in this data set derive from B1. Nature of the data set: nonsense suppression (GFP-seq) (ratio to wild type); higher = more function; SUP4oc tRNA, yeast GFP reporter sort-seq. An outline of the steps: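 Sorted GFP/RFP bins of yeast were each Illumina-sequenced with a phred ≥30 cutoff; the cells held a genome-integrated ochre-suppressor tRNA variant from a library with ~3% random mutations, a galactose-driven GFP ochre reporter, and RFP. Culture was in raffinose/galactose medium containing 80 mg/L adenine. Nonsense suppression, termed GFPSEQ, is the median GFP/RFP of the bins weighted by each variant's estimated cell share per bin, relative to the unmutated parent tRNA, for variants reaching ≥100 reads and ≥30 cells.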
In the case of C64U G73U A89C, the nonsense suppression was at most 0.026. Turning to G25U G73A C79A G84U, the nonsense suppression was at most 0.026. On to U2A C5A, for which the nonsense suppression is at most 0.026. To G15A A30G belongs at most 0.026; to G32U G84A A89G, at most 0.026; to U4C U58C A60U G69U G88A, at most 0.026. Take C1G G25C C75G: the nonsense suppression was at most 0.026. To A14G A54U G85U belongs at most 0.026; to U58A G84A, at most 0.026. Under U35A U57G C81U G85C A87U stands at most 0.026; under U4C G78C, 1.06; under G15C A23G U71A, at most 0.026. For U2A C56G A87C, the nonsense suppression was at most 0.026. G61A U63C: the nonsense suppression is 0.728. As to C64G C77U, the nonsense suppression is at most 0.026. For G15U G25U C34A, the nonsense suppression was at most 0.026. Under A14G U70G stands at most 0.026. As to C1A A9U, the nonsense suppression was at most 0.026. In the case of U22G G61A U63A G86C, the nonsense suppression was at most 0.026. Consider C1A C3G, for which the nonsense suppression is at most 0.026. G6C U76A: the nonsense suppression is at most 0.026. With C12A U63C A87C, the nonsense suppression is at most 0.026. With U17G G65A, the nonsense suppression was at most 0.026. As to G6U G61C U63G U71G, the nonsense suppression was at most 0.026. To C5U U16A C81G belongs at most 0.026; to U2G C5U C27U U35G, at most 0.026. Under G84C G85U stands at most 0.026. Under G84C G85C stands 0.0289. With G25U U57A C64A, the nonsense suppression was at most 0.026.

Turning to U55C U63C C83G, the nonsense suppression is at most 0.026.

C5U C29G: the nonsense suppression was at most 0.026.

As to U2C A31G C83A, the nonsense suppression is at most 0.026. Regarding G10A A13U G59U, the nonsense suppression is at most 0.026. As to A30G G85C, the nonsense suppression is at most 0.026. Turning to C64G C79A, the nonsense suppression is at most 0.026. As for A9C A30C U63G G84C, the nonsense suppression was at most 0.026. To C68A belongs at most 0.026. Regarding G7U G15C A23G U55G U57A, the nonsense suppression is at most 0.026. A33C A54G U76C: the nonsense suppression was at most 0.026. Under G25C A31G stands at most 0.026; under A9C U21G A89G, at most 0.026.

Consider C11U U57G C83A, for which the nonsense suppression was at most 0.026. Regarding G25C A30G, the nonsense suppression is at most 0.026. In the case of U20A G28U G59U, the nonsense suppression was at most 0.026. Under C82A G86A stands at most 0.026; under G19U G26C A30G A74U, at most 0.026; under G59A U76G, at most 0.026. C1G G6U A74G: the nonsense suppression is at most 0.026. In the case of A9C A14C G84C, the nonsense suppression is at most 0.026. Under G28U U35C stands at most 0.026; under G10C G26U G86A G88A, at most 0.026; under U57C G61A, 0.0312.

Turning to C3U A30C G32A C34A U76A, the nonsense suppression was at most 0.026. Turning to G6C A87C, the nonsense suppression was at most 0.026. Under U76C C83G stands at most 0.026; under C5U G59C, at most 0.026. In the case of C64U G67C A74G G85C, the nonsense suppression was at most 0.026. Under G15C G59C G61C stands at most 0.026; under G15A U22G G26C A62U C82G, at most 0.026.

For the variant C1G A24U G28A A74C C81A A89G, the nonsense suppression was at most 0.026.

Consider C11U G26C U57G, for which the nonsense suppression is at most 0.026.

In the case of U2A U20C A24U, the nonsense suppression is at most 0.026. Regarding C1G A23G C27A, the nonsense suppression was at most 0.026. Consider G19C C75A C81G, for which the nonsense suppression is at most 0.026.

In the case of G19U C56G U58C, the nonsense suppression is at most 0.026. To A31C A87G belongs at most 0.026; to G7A C27G, at most 0.026. As to U4C U21G U71C G78U, the nonsense suppression is at most 0.026.

As to A30U A60U, the nonsense suppression was found to be 0.769.

For U17C G18A, the nonsense suppression was at most 0.026.

As for A33U G69C A87U, the nonsense suppression is at most 0.026. For U4C G59A, the nonsense suppression was at most 0.026. Turning to A24G A30U, the nonsense suppression was at most 0.026. To U55A A60C C75U G78C C79G belongs at most 0.026; to G15C U20A A60U, at most 0.026.

With G59C G73U, the nonsense suppression is at most 0.026. To G85U G88U belongs at most 0.026; to A24G G65C G78C, at most 0.026; to U4C A33C G88C, at most 0.026. Under A14U G19U C27U U35A stands at most 0.026. Regarding G25U A33C A87G, the nonsense suppression is at most 0.026.

Turning to C34U U70A, the nonsense suppression is at most 0.026. Consider C11U U20C, for which the nonsense suppression was at most 0.026. Under A23U C56G U70C stands at most 0.026; under C1U A54U U58C G61A U70C, at most 0.026; under C5G U35G U55C U63C, at most 0.026. C56A G66A U76A: the nonsense suppression is at most 0.026. For the variant C11U C29G, the nonsense suppression is at most 0.026. To A62C C64A belongs at most 0.026; to U35G U70C, at most 0.026. A13C C27A G61C C75G: the nonsense suppression was at most 0.026. To G66A C82A belongs at most 0.026; to U58A A60U U70C, at most 0.026; to U57G G59C, at most 0.026. For G66C A87U, the nonsense suppression is at most 0.026. As for G66U A74C G85C, the nonsense suppression is at most 0.026. In the case of C3A C81G, the nonsense suppression is at most 0.026. To U16C A31G U57C belongs 0.922; to A9G G59C C75U, at most 0.026; to U4G A31G, 0.0398. Regarding U20A C75G G85U, the nonsense suppression was determined as 0.154. Under G7C A60G stands at most 0.026; under U20A U55C C82G, at most 0.026; under C3A U8G, at most 0.026.

On to U55C C77G G78U, for which the nonsense suppression was at most 0.026. For the variant U2A U4G U70C, the nonsense suppression was at most 0.026. Turning to A33G G88C, the nonsense suppression was at most 0.026. To U71A G73C G86C belongs at most 0.026; to A9U G61C U70G, at most 0.026. Under U17G A24G A30C A60C C64G stands at most 0.026. On to G19C G32C, for which the nonsense suppression is at most 0.026.

Take U57G U70G C79G: the nonsense suppression is at most 0.026. Under G19U C34G C68U G73A A89C stands at most 0.026; under C3G G85A G86U, at most 0.026. As to A33U U76C G84C, the nonsense suppression is at most 0.026. To U70C A89U belongs at most 0.026; to U8G A14U G61A C64A G85U, at most 0.026; to G10U C11A A60C, at most 0.026. For the variant C3U A9U A14C C27A A60U, the nonsense suppression is at most 0.026.

As to G25A U35G U58A, the nonsense suppression is at most 0.026.

On to U57G G85U, for which the nonsense suppression was at most 0.026. Under C11G U57C stands at most 0.026; under G7U U57C C64G, at most 0.026; under C5G C11A U57G, at most 0.026.

As to U17G A33U U63C G65C, the nonsense suppression is at most 0.026.

For G61C C82G, the nonsense suppression was at most 0.026. To C12G A33G C77G C83G G85A belongs at most 0.026; to C27A C56G U76C, at most 0.026. To A31U C80G belongs at most 0.026. To C1A C56G A62U C80G C82A belongs at most 0.026; to G7C A31C G84U A87G, at most 0.026.

On to A14U U16C G61U G78C, for which the nonsense suppression is at most 0.026. To C12G G32U U57G G69A belongs at most 0.026. Under G18C G19C A54G A62U stands at most 0.026; under G15U C68G, at most 0.026. Turning to U8A C12G, the nonsense suppression was at most 0.026. Take C1A G10C G15U U57C C75G: the nonsense suppression was at most 0.026.

Consider U57C G65C C83G, for which the nonsense suppression is at most 0.026. With A33G C81G, the nonsense suppression was at most 0.026. On to U21G U35G G78A, for which the nonsense suppression is at most 0.026. Under C1G G10U C64G U76G stands at most 0.026. To U22A U55C belongs 0.377; to C34G G67C A87G, at most 0.026. Consider G19A G59A, for which the nonsense suppression is at most 0.026. To U2C A54C belongs at most 0.026; to C34A G67C C79G, at most 0.026. As to C11U G19C A87C, the nonsense suppression was at most 0.026. Turning to C3A G19C, the nonsense suppression is at most 0.026. As to G25U A60U C79U, the nonsense suppression was at most 0.026. As to U4A G86C, the nonsense suppression is at most 0.026. To C3A G6A U71G belongs at most 0.026; to A74C G86U, at most 0.026; to C11A G61A U63C U76A, at most 0.026. Under A24G G59U stands at most 0.026. Regarding C1G G84U A87U, the nonsense suppression is at most 0.026.

Consider G7U U17A U20C A23G A31G A87G, for which the nonsense suppression was at most 0.026.

Take G32U G65C: the nonsense suppression was at most 0.026.

In the case of C80U G84C, the nonsense suppression was at most 0.026. Regarding A14C U22C, the nonsense suppression was at most 0.026. Under U35C U70A G78A stands at most 0.026. To A30G C82U belongs 0.0497; to G61C C81G, 0.248; to C5A G6U C11U G26U U63G, at most 0.026. With C27A G67A G85C, the nonsense suppression was at most 0.026.

As for U16C C83G, the nonsense suppression was at most 0.026. As to A13U A24G G26C G32C A89C, the nonsense suppression was at most 0.026. Under U17A U22C C27A stands at most 0.026.
